Results published in PubChem BioAssay AID2546 (National Center for Advancing Translational Sciences (NCATS), 2010).
Hit rate of the full screen: of about 310,000 compounds, about 11,000 (3.5%) were called active. This list was built around the results that the source calls inconclusive (neither active nor inactive); the mix of calls is not that of the screen. The call rests on the fitted dose curve; in most records, active means well fitted inhibition curve with a large enough effect; inconclusive means small, poorly fitted or top-dose-only effect, or effect the other way; inactive means flat fitted curve, though single readings scatter. No potency is given beside an inconclusive call; the fits are too rough.

Assay: VP16 counterscreen qHTS for inhibitors of ROR gamma transcriptional activity;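 further: Gal4-VP16 expression switched on by copper sulfate through the metallothionein promoter; nearly all actives have a fitted effect of over 50% in size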
Settings: Drosophila S2 Gal4-VP16 UAS-luciferase, luminescence, 20 h; activity, negative = inhibition: at 53.6 µM (top of the series)
On the % scale 0 is the no-effect control and ±100 the full control effect; potency means the concentration at half of the fitted maximal effect; tags describe the fitted curve by direction and shape.

Row | SMILES | Potency | activity, negative = inhibition
1 | COc1cc2c(cc1OC)CN(S(=O)(=O)c1cccs1)CC2 | inactive | 
2 | Cc1ccc(C(=O)NC(=S)NCc2ccccc2)cc1 | active: 12.6 µM | 
3 | CCc1ccc(NC(=O)Nc2ccsc2C(=O)OC)cc1 | inconclusive [inhibitor, partial curve] | 
4 | CC(C)(C)c1ccc(S(=O)(=O)NCC(=O)Nc2ccc(-c3nc4ccccc4s3)cc2)cc1 | inconclusive [inhibitor, single point] | 
5 | O=c1[nH]c(=S)[nH]c2sc3c(c12)CCCCCC3 | inconclusive [inhibitor, single point] | 
6 | COCc1nnc(NC(=O)c2ccc(S(=O)(=O)N3CCOCC3)cc2)o1 | active: 20 µM | 
7 | N#C/C(=C\c1ccc(N2CCCC2)c([N+](=O)[O-])c1)c1nc2ccccc2[nH]1 | inconclusive [inhibitor, partial curve, poor fit] | 
8 | O=C(N/N=C/c1cc([N+](=O)[O-])ccc1O)c1cccc(N2CCCC2=O)c1 | active: 3.16 µM | 
9 | O=C(NNC(=O)c1ccc(Cl)cc1Cl)c1cnccn1 | inconclusive [inhibitor, single point] | 
10 | CCCCOc1ccc(C(=O)N/N=C/c2ccc(OCCN3CCCCC3)c(OC)c2)cc1 | inconclusive [inhibitor, single point] | 
11 | C=C1C[C@H]2[C@@H]3C=C(C)C4=CC(=O)CC[C@]4(C)[C@H]3CC[C@]2(C)[C@@]1(OC(C)=O)C(C)=O | inactive | 
12 | COc1cc2c(cc1OC)C(c1ccc(-c3ccc(Cl)c(Cl)c3)o1)=NCC2 | inconclusive [inhibitor, partial curve] | 
13 | O=C(O)Cc1ccc(NC(=O)c2ccc(Cl)c(Cl)c2)cc1 | inconclusive [inhibitor, partial curve] | 
14 | Cc1ccc(C(=O)NC(=S)NCC(=O)c2ccccc2)cc1 | inconclusive [inhibitor, single point] | 
15 | CCCCN(C)c1nc(-c2ccco2)c2c(c1C#N)CC(C)(C)OC2 | inconclusive [inhibitor, single point] | 
16 | COC(=O)N1CC=CC1(C)C(=O)NCC1CC1 (centres undefined) | inconclusive [activator, full curve, poor fit] | 
17 | O=C(c1cccc(F)c1)N1CCC2(CC1)CN(c1ncccn1)C2 | inactive | 
18 | CCOC(=O)C1=C(O)/C(=C/c2cc(OC)c(O)c(OC)c2)SC1=Nc1ccc(OC)cc1 | inconclusive [inhibitor, full curve, poor fit] | 
19 | Cn1ccnc1SCC(=O)Nc1ccc2nc(SCC(=O)NC3CC3)sc2c1 | inconclusive [inhibitor, single point] | 
20 | Cc1nc2ncnn2c(N2CCN(c3cccc(C(F)(F)F)c3)CC2)c1C | inconclusive [inhibitor, single point] | 
21 | S=c1[nH]nc(COc2ccccc2)n1/N=C/C(Cl)=C/c1ccccc1 | inconclusive [inhibitor, partial curve] | 
22 | COc1ccc(NC(=S)Nc2cccc(C)n2)cc1 | active: 4.47 µM | 

Row | SMILES | Potency | activity, negative = inhibition
23 | CN(C)c1nc(NCc2ccccc2)nc(SCC(=O)Nc2ccccc2Cl)n1 | inconclusive [activator, single point] | 
24 | O=C(Oc1c(CN2CCOCC2)cc(Cl)c2cccnc12)c1ccccc1Cl | active: 3.55 µM | 
25 | CC(=Nc1ccc(O)cc1)c1sc2ccccc2c1O |  | inactive: -11.1% [at 0.365 µM]
26 | O=C(COc1ccc2ccccc2c1)NNC(=O)Cc1ccccc1 | inconclusive [inhibitor, partial curve] | 
27 | N#Cc1c(Cl)cccc1Oc1ccc(S(=O)(=O)Nc2ccccc2)cc1 | inconclusive [inhibitor, single point] | 
28 | CCc1ccc(/C=N/n2c(COc3ccccc3)n[nH]c2=S)cc1 | inconclusive [inhibitor, partial curve] | 
29 | COCc1cc(=O)[nH]c(Nc2nc3ccccc3o2)n1 | inconclusive [inhibitor, full curve, poor fit] | 
30 | Cc1cc(N2CCCCC2)n2ncc(-c3ccc(Cl)cc3)c2n1 | inconclusive [inhibitor, partial curve, poor fit] | 
31 | Cc1cc([N+](=O)[O-])cc(/C=N\NC(=O)C2COc3ccccc3O2)c1O (centres undefined) | active: 4.47 µM | 
32 | Oc1ccccc1Nc1nc(NCc2ccccc2)c2ccccc2n1 | active: 22.4 µM | 
33 | CCOC(=O)c1cc2c(nc1NC(=S)Nc1ccccc1)CC(C)(CC)OC2 (centres undefined) | active: 7.94 µM | 
34 | O=C(COC(=O)c1ccccc1[N+](=O)[O-])NCCCc1ccccc1 | inconclusive [activator, full curve] | 
35 | c1ccc(CSc2nc3ccccc3[nH]2)cc1 | inconclusive [inhibitor, full curve, poor fit] | 
36 | Cc1ccccc1NC(=O)CN1C(=O)C2C3CC(C(Br)C3Br)C2C1=O (centres undefined) | inconclusive [activator, single point] | 
37 | O=S1(=O)C=C(Sc2nc3cc(Cl)ccc3o2)c2ccccc21 | active: 2.51 µM | 
38 | COc1ccc(OC)c(-n2c(-c3cc(-c4ccc(F)cc4)n[nH]3)n[nH]c2=S)c1 | inactive | 
39 | CCNS(=O)(=O)c1ccc(NC(=O)c2ccc(Cn3cc([N+](=O)[O-])cn3)o2)cc1 | inactive | 
40 | O=C(Nc1ccc(C(F)(F)F)cc1)C1CCN(S(=O)(=O)c2ccc(N3CCCC3=O)cc2)CC1 | active: 3.55 µM | 
41 | CCn1c2ccccc2c2nc3cc(C(=O)O)ccc3nc21 | inconclusive [inhibitor, single point] | 
42 | CCOc1cc(C(=O)N/N=C\c2cn(CC)nc2C)cc(OCC)c1OCC | inconclusive [inhibitor, single point] | 
43 | CC(=O)N1c2ccc(S(=O)(=O)N3c4ccccc4CC3C)cc2CC1C (centres undefined) | inconclusive [inhibitor, single point] | 
44 | COc1ccccc1OCCn1c(C)c(C=O)c2ccccc21 | inconclusive [inhibitor, single point] | 
